Reference: the supplement of paper PMC10126150
Values marked as one replicate rest on one cluster of the flow cell; about a third of the high ones do not repeat.

Tested on: ATP
Assay: switch fluorescence ratio, 500 uM ATP over buffer (Cy3 cluster intensity, sum of 5 cycles each) (fold (ratio)); higher = stronger signal-on switching upon ATP binding; sequences stand for … in TCGTCGGCAGCGTCAGATGTGTATAAGAGACAGTTTTTTTTTTTTTTTTTTTTTTTTT…TC
Conditions: aptamer strand: ATP DNA aptamer (quencher-CACCTGGGGGAGTATTGCGGAGGAAGG + anchor), 100 nM annealed; ATP concentration: 500 uM; one replicate
Method in brief: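 Clusters carrying Cy3-labelled switching strands on a modified Illumina MiSeq flow-cell were annealed to 100 nM quencher-labelled ATP aptamer and imaged in selection buffer. They were imaged again after 15 min with 500 uM ATP at 22 °C, over five buffer/ATP cycles with NaOH stripping and re-annealing in between. For each cluster, the fluorescence ratio is the summed Cy3 intensity of the target cycles divided by that of the buffer cycles, averaged per switch-domain sequence. Clusters outside 100-1000 RFU were left out.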
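Further: ATP exposure 15 min at 22 °C before imaging.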

Sequence | switch fluorescence ratio
CGACTAATTT | 1.01
CCCTGTCGCC | 1
CTCAGGAGGT | 0.965
TTTTAAGTTA | 1.03
CAATACTATG | 1.04
CCTACACGAT | 4.77
CGGGGTTG | 0.938
TGTTGTT | 1
GATCAGGGCG | 0.988
TTTAGTAGT | 0.996
TCTTATCAGA | 1.03
CTGCCCCCGC | 1.54
ACTGCTGGAG | 0.993
ATGCGTTCTT | 1
CTATACATGT | 1.01
TAGACGCAGC | 1.11
GCATATGTGT | 0.974
AAATAGGACT | 0.997
AGGGGATTAG | 1.17
TTGTTCCCT | 1.03
AATTCTATCA | 0.984
TTAATCCATT | 1.02
ACACTGTAAT | 1.13
GAACCGTGTA | 1.01
CATAATCAGA | 0.986
CGGATTCGG | 1.04

Sequence | switch fluorescence ratio
CAAAGTGCGT | 0.982
TTTCTACTGT | 1.05
CAACGAGTTA | 0.986
AGCGCCCATA | 1.02
GAGCCCTCAA | 1.02
TAGAGCAGAA | 0.979
CAAAGCCTTA | 1
GAATAAGCGG | 0.996
TTCATGTCGA | 1.01
GAGAATTGG | 1
TGTTTGGTTC | 1.26
GACGTGTGTG | 0.966
TAAGCGCGTA | 0.967
TTAGTTGGT | 1.02
TGTATGCAAT | 1.08
ATATACGGGC | 1.03
TTTCTGATGG | 1.02
GTTCATTATT | 1.01
ATATACATTT | 1.03
CACTGCTATA | 1.46
CTATATGGGT | 0.969
GAGACGGGTT | 1
TGAGGTGCAC | 0.988
GGAACTGTTG | 1.04
TAAACATGAT | 1.02
ACTAATTCCG | 1.01

Sequence | switch fluorescence ratio
AGATGGCAGC | 0.995
CGGAACCCCG | 1.04
TATTTTTCCA | 0.988
AATTGTCGGG | 0.981
TCGTCCTTCA | 1.14
CCGAGTCGTT | 1.01
CTTGTCGTTT | 1
GTTCGAGCTA | 1.01
GGTCTATCAG | 0.978
GGAAAATGGA | 1.05
CGGAAAAGAA | 0.99
AGGGAGTGGA | 1.02
CAGTCTGTG | 0.926
GCACGCATTT | 1.12
GGAGGGTAGG | 1
GACATGCACA | 1.06
GTACTGAGAT | 1.03
ATTAGACACG | 1.04
ATATTGCCCG | 0.95
AAGTAGTGCA | 0.991
CAATGGTTCG | 1.01
CCATCGATTC | 1.03
TATACGGGCG | 1.1
CGATTGCTCC | 1.24
GAGGAGCATT | 1.05
CTTGACATTT | 0.996

Sequence | switch fluorescence ratio
AACTTTTATA | 0.999
TGAATTTAAA | 1
TTCACCATTT | 0.995
GGTAGCGGG | 1.03
ATTCGATTCA | 0.924
TGATAGCTCT | 1.02
TCGGATGAAT | 1.02
CAGTCCCGTG | 1.03
CAGTTTTCGT | 1.03
TAAGATCCCC | 1.03
GGCGATCTTC | 1.02
TGATGTGACC | 0.999
AGTGGGCGCG | 1.03
TATGGGACTT | 1.06
TGGTGGCTGA | 1.01
CAACACCGCC | 1.36
GCTCATAGTT | 0.988
TATAGCTCAC | 1.09
TTAGCAATTG | 1.13
CACTATTGAA | 0.985
GAAGCGATGG | 3.93
AGATTTCTGC | 0.971
GCATTGACCC | 1.21
CCGTTGCTAG | 1.14
CACGGAACGA | 1.05
CAAAAGCGGG | 1

Sequence | switch fluorescence ratio
CCGGAGGGCC | 1.17
TGGTCTACTT | 1.04
CTTTGAGTTG | 0.981
TTATATTCAG | 0.974
CTGGTAGCGA | 2.06
TTGGAGGAAG | 0.984
ACGTCTGT | 0.964
TTGAGGAGTA | 1.04
TAACAAGATC | 1.02
TGGAAAAGTG | 1.03
CGGGAGTACA | 0.964
TACAACAGGG | 1.1
GCTACGCATT | 2.76
TGTACGGACG | 1.06
ATCGGCCGT | 1.04
AGGCCGACAT | 1
AAGACGGCTT | 0.994
AAAGCATGCT | 0.971
CTCGAAGCGA | 0.995
AACACTTAGG | 1.03
GTGCTTATGC | 0.968
GAACACACAT | 1.22
TCAATCTAGA | 1.04
GGTCGTCGT | 1.06
ATTCCTAGG | 1.02
GCATCAACCC | 1.04

Sequence | switch fluorescence ratio
CGGCGAGCTT | 1
GGCAAGGATT | 1.03
GTTAACATTT | 1.03
CTCTAAGAGC | 1.04
TTGCTATTGG | 0.997
TTATGTATTA | 0.976
GGAAGGGTAC | 1.02
GCAGGCACGA | 1.07
GTTATGAACA | 1.01
AATACGGATG | 1.01
CATGGGTGTC | 1.04
AGTTGACTCG | 0.981
TATGACGGCC | 1.01
GCTACGTCGT | 0.966
CTTCACGCCC | 1.24
CAATGAAATA | 1.02
CACAGCGCCC | 1.11
TGGGGTAGG | 1.04
ACGGACCAGT | 1.29
TTGATAAGGG | 0.992
TCTGCTCGG | 1.03
AGCAGATTGT | 0.999
TCTGTTACTT | 1.01
ATGAGTCGAG | 0.973
GTTCGACATA | 0.974
ATGCTACTTT | 0.993

Sequence | switch fluorescence ratio
CAGGCGCATA | 1.98
CTATTGAAAC | 0.997
TAAGCGCTAA | 1.01
GGACGTATGA | 1.04
CAAAGTCTAG | 1.03
TGACGAAAGC | 1.44
GGCACAGTTA | 0.993
CTGGCCGGTT | 1.06
TGGGCTGCTG | 0.989
CACCTTATCT | 1.08
GTGGGGAGC | 1.03
CTTCGCCGAG | 1.07
AACCCGACGG | 1.14
GGCTTCCATC | 1.03
CGACGTGGAG | 1.03
GTTAATCTGG | 1.01
GCAGTTTTGA | 0.997
TCAACATTGC | 1.11
TCCACGGGCT | 0.981
CACGGGCTTA | 1.03
TCTAAACTAA | 1.02
AGAACTCAGC | 1.06
TTGCTTGCCG | 1.01
TAAGGGGAA | 0.999
GCGAAATTAG | 1.06
ATCGCAAGTG | 1.05

Sequence | switch fluorescence ratio
GGATTTTCGG | 0.98
GGTCGTTTAT | 0.996
AGATAAGTTG | 0.945
AAAGGGGCGT | 0.981
AAAGTTCATA | 0.993
GAATTCACTA | 1.04
CGCGCCTATA | 0.99
CATCTCATGT | 0.989
GGTCACTCAC | 1.2
CACGTTTCT | 0.994
ATACAAGGTT | 0.958
TAGGGCATT | 1.01
TGGATATCTG | 1
GGTTGCAACG | 1.02
TGAACCAGTT | 0.966
CGCTTATAGA | 1.06
GTCGCAATGA | 4.37
ACCCCATGGT | 1.39
TGCGGTACCA | 0.991
